The list shows a part of the results. At the low end of the ranking the order means little.

The assay has as its target T1, ELK1 (UniProt P19419).
T1 sequence: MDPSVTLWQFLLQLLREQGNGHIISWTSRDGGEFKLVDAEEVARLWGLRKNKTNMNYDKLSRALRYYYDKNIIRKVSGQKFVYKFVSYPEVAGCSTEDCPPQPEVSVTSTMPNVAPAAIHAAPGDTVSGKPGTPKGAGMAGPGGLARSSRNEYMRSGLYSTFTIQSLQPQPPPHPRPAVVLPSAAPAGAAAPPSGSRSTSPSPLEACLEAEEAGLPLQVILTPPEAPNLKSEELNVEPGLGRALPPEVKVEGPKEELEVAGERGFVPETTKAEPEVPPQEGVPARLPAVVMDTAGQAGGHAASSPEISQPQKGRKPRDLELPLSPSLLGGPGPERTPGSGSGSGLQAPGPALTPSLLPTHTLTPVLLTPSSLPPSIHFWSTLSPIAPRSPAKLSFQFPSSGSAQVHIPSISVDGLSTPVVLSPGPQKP
Kind of assay: custom PBM. As to conditions: custom protein-binding microarray; buffer, salt, pH and temperature not stated; high values mean tight binding; double strand, one strand shown.
As for “CTGGGACTTGACCCAACTCTGCCACGTGGGTCCTTTGTCTTGATTCGCTTGACGCTGCTG”, the binding signal (log fluorescence intensity) amounted to 8.82.

Consider “TACTAACTTATATATGCGAATGCACATGAATAGACCGTCTTGATTCGCTTGACGCTGCTG”, for which the binding signal (log fluorescence intensity) came out at 8.93.

In the case of “TACTGACTTATATATGCGAATTCACATGAATAGACCGTCTTGATTCGCTTGACGCTGCTG”, the binding signal (log fluorescence intensity) came out at 8.87.

On to “GATTAATTTCTGCCCTTATTCGCCCGTGCCATAACAGTCTTGATTCGCTTGACGCTGCTG”, for which the binding signal (log fluorescence intensity) was 8.71.

As to “CAAAGGGAAGACGGTTGTGGTAGTTCCGGGTATTAAGTCTTGATTCGCTTGACGCTGCTG”, the binding signal (log fluorescence intensity) was 11.3.

For “GAGCATAGGACTTCTTCCCTGAAGCAATTGATAACCGTCTTGATTCGCTTGACGCTGCTG”, the binding signal (log fluorescence intensity) stood at 8.98.

In the case of “TCCGGCTACCAGCTCCACCGACTTCAGGCCTTGTAGGTCTTGATTCGCTTGACGCTGCTG”, the binding signal (log fluorescence intensity) amounted to 8.85.

Consider “GATTCATTTCTGCCCTTATTCGCACGTGCCATAACAGTCTTGATTCGCTTGACGCTGCTG”, for which the binding signal (log fluorescence intensity) turned out to be 8.97.

As for “GTTTATAGGATCCCATCCAACACACGTGTTAAAATGGTCTTGATTCGCTTGACGCTGCTG”, the binding signal (log fluorescence intensity) was determined as 8.93.

With “CACAATTTTTGCAGTAATGTAGCACGCGTAACTCCTGTCTTGATTCGCTTGACGCTGCTG”, the binding signal (log fluorescence intensity) stood at 8.85.

As to “GTGCATAGGATCCCATCCAACACACGTGTTAAAATGGTCTTGATTCGCTTGACGCTGCTG”, the binding signal (log fluorescence intensity) was 9.

For the sequence “GGAAAAAGGCCTAGGGTAACACCGGAAGTGGGCTTAGTCTTGATTCGCTTGACGCTGCTG”, the binding signal (log fluorescence intensity) came to 10.9.

With “TGTCGGGTAAGGGAATGTAGATCACGTGAATGAAAGGTCTTGATTCGCTTGACGCTGCTG”, the binding signal (log fluorescence intensity) is 8.8.

For “GTGTATAGGATCCCATCGAACACACGTGTTAAAATGGTCTTGATTCGCTTGACGCTGCTG”, the binding signal (log fluorescence intensity) came to 8.89.

As for “TCCGGCTACCAGCACCACCCACTTCAGGCCTTGTAGGTCTTGATTCGCTTGACGCTGCTG”, the binding signal (log fluorescence intensity) worked out at 8.9.

As to “GATTAATTTCTGCCCATATTCGCACGTGCCATAACAGTCTTGATTCGCTTGACGCTGCTG”, the binding signal (log fluorescence intensity) was found to be 8.82.

“GCTGCTGCGGTGCATACCCCACCGGCTGTGACCCCGGTCTTGATTCGCTTGACGCTGCTG”: the binding signal (log fluorescence intensity) is 9.02.

“TGTCGGGTAAGGGAATCTAGATCACGTGAATGAAAAGTCTTGATTCGCTTGACGCTGCTG”: the binding signal (log fluorescence intensity) amounted to 8.95.

“GATTAATTTCTGCCCTTATTCGCACGGGCCATAACAGTCTTGATTCGCTTGACGCTGCTG”: the binding signal (log fluorescence intensity) turned out to be 8.84.

In the case of “CGGAAGTGTCGTAAACGTTGGATATCCGGTTCTTCTGTCTTGATTCGCTTGACGCTGCTG”, the binding signal (log fluorescence intensity) came out at 11.4.

On to “GCTGCTGCGGTGCCTACCCCACCGGATGTGACCCCGGTCTTGATTCGCTTGACGCTGCTG”, for which the binding signal (log fluorescence intensity) is 10.3.

For “CAGCATATGACTTCTTCCCTGAAGCAATTGATAACCGTCTTGATTCGCTTGACGCTGCTG”, the binding signal (log fluorescence intensity) stood at 8.83.

Turning to “CACAATTTTTACAGTAATGTAGCACGCGTAACTGCTGTCTTGATTCGCTTGACGCTGCTG”, the binding signal (log fluorescence intensity) worked out at 8.98.

In the case of “GATTAATTTCTGCCCTTAGTCGCACGTGCCATAACAGTCTTGATTCGCTTGACGCTGCTG”, the binding signal (log fluorescence intensity) amounted to 8.96.

On to “CACAATTTTTACAGTAATGTAGCACGCGTAACTACTGTCTTGATTCGCTTGACGCTGCTG”, for which the binding signal (log fluorescence intensity) amounted to 8.82.

For the sequence “TGTCGGGTAAGGGAATGTAGATCACGTGAATGAACAGTCTTGATTCGCTTGACGCTGCTG”, the binding signal (log fluorescence intensity) worked out at 8.99.

For “GCTGCTGCGGTGCATAGCCCACCGGATGTGACCCCGGTCTTGATTCGCTTGACGCTGCTG”, the binding signal (log fluorescence intensity) turned out to be 10.4.

Take “CTGGGACTTGACCTAACTCTGCCACGTGGGTCGTTTGTCTTGATTCGCTTGACGCTGCTG”: the binding signal (log fluorescence intensity) was 8.92.

“CCTGCTGCGGTGCATACCCCACCGGATGTGACCCCGGTCTTGATTCGCTTGACGCTGCTG”: the binding signal (log fluorescence intensity) was 10.2.

Regarding “CGGAAGTGTTGTAAACGTCGGATATCCGGTTCTTCTGTCTTGATTCGCTTGACGCTGCTG”, the binding signal (log fluorescence intensity) turned out to be 12.

On to “TACTGACTTATATATGCTAATGCACATGAATAGACCGTCTTGATTCGCTTGACGCTGCTG”, for which the binding signal (log fluorescence intensity) was determined as 8.92.

“GCAGCTGCGGTGCATACCCCACCGGATGTGACCCCGGTCTTGATTCGCTTGACGCTGCTG”: the binding signal (log fluorescence intensity) was determined as 10.1.

Consider “TGTCGGGTAAGGGAATGTAGATTACGTGAATGAAAAGTCTTGATTCGCTTGACGCTGCTG”, for which the binding signal (log fluorescence intensity) is 8.82.

As to “GATTAATTTCTGCCCTTATTCGCATGTGCCATAACAGTCTTGATTCGCTTGACGCTGCTG”, the binding signal (log fluorescence intensity) worked out at 8.8.

Take “TCCGGCTACCAGCTCCACCCACTTCCGGCCTTGTAGGTCTTGATTCGCTTGACGCTGCTG”: the binding signal (log fluorescence intensity) turned out to be 12.3.

Regarding “GGAAACAGGCCCAGGGTAACACCGGAAGTGGGCTTAGTCTTGATTCGCTTGACGCTGCTG”, the binding signal (log fluorescence intensity) amounted to 10.7.

Consider “GGAAAATGGCCCAGGGTAACACCGGAAGTGGGCTTAGTCTTGATTCGCTTGACGCTGCTG”, for which the binding signal (log fluorescence intensity) was 11.

With “CAGCATAGGACTTATTCCCTGAAGCAATTGATAACCGTCTTGATTCGCTTGACGCTGCTG”, the binding signal (log fluorescence intensity) is 8.93.

As for “TGTCGGGTAAGGAAATGTAGATCACGTGAATGAAAAGTCTTGATTCGCTTGACGCTGCTG”, the binding signal (log fluorescence intensity) was 8.91.

With “CTGGGACTTGACCCAACTATGCCACGTGGGTCGTTTGTCTTGATTCGCTTGACGCTGCTG”, the binding signal (log fluorescence intensity) stood at 8.89.

As for “GATTAATTTCTGCCCTTATTAGCACGTGCCATAACAGTCTTGATTCGCTTGACGCTGCTG”, the binding signal (log fluorescence intensity) was found to be 8.82.

Source of the values: article PMC6602471.
